Among all 420,000 compounds or so, about 50,000 (12%) were called active. Inconclusive results, whose numbers are uncertain, are shown with a selection of clear calls. The call rests on the fitted dose curve; in most records, active means well fitted inhibition curve with a large enough effect; inconclusive means small, poorly fitted or top-dose-only effect; inactive means flat fitted curve, though single readings scatter. Potencies of inconclusive entries are left out as doubtful fits.
Assay: qHTS for Inhibitors of human tyrosyl-DNA phosphodiesterase 1 (TDP1): qHTS in cells in presence of CPT; further: nearly all actives have a fitted effect of over 55% in size
Settings: chicken DT40 Tdp1-/-;hTDP1 cells + 20 nM CPT, ATP luminescence, 48 h; activity change, negative = growth inhibition: at 46.2 µM (top of the series) unless noted
In short: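 Chicken DT40 Tdp1-/- cells complemented with human TDP1, 400 cells/well, exposed to compounds plus 20 nM camptothecin for at least 48 h at 37 C; viability read as ATP content by CellTiter-Glo luminescence.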
On the % scale 0 is the no-effect control and ±100 the full control effect; potency means the concentration at half of the fitted maximal effect; tags describe the fitted curve by direction and shape.

SMILES | Potency | activity change, negative = growth inhibition
CCCC(=O)N1CCC1(C)C(=O)NCc1ccc(C(C)C)cc1 (stereo not given) | inconclusive [inhibitor, single point] | 
COC(=O)[C@@]12C[C@@H](CC(=O)N3CCC(c4ccccc4)CC3)C(=O)N(Cc3cccc4ccccc34)C1=CCC(C)(C)C2 | inconclusive [inhibitor, single point] | 
CCc1ccc(CN2CCC(n3nccc3NC(=O)c3ccccc3Cl)CC2)cc1 | active: 23.1 µM | 
CCCCSCCCNC(=O)c1cn(C)c2ccc(S(=O)(=O)N3CCCC3)cc2c1=O | inconclusive [inhibitor, single point] | 
NC(=O)CC(NC(=O)c1ccccc1)c1ccc(NCCc2ccc(Cl)cc2)c([N+](=O)[O-])c1 (stereo not given) | inconclusive [inhibitor, single point] | 
Cc1cc(C)cc(OCC(=O)N(Cc2ccc(Cl)cc2)CC2CCCO2)c1 (stereo not given) | inconclusive [inhibitor, single point] | 
CN(CCOc1ccccc1)C(=O)c1cc(S(=O)(=O)N2CCOCC2)ccc1Cl | inactive | 
O=C(Nc1cccc(N2CCC(NCc3cnn(-c4ccccc4)n3)CC2)c1)c1cccnc1 |  | inactive: 14.5% [at 9.04 µM]
COc1ccc(N2CCN(CCNC(=O)Nc3ccc(Cl)cc3)CC2)cc1 | inconclusive [inhibitor, single point] | 
c1cc2c(cc1Cn1cnnn1)OCO2 | inactive | 
COc1cccc(Oc2nccc(N(C)C)c2C#N)c1 | inactive | 
COC(=O)C1=C(CCc2ccccc2)NC(=O)NC1c1ccc(Cl)cc1 (stereo not given) | inconclusive [inhibitor, single point] | 
CC1CC(C)CN(CCCNC(=O)CN2C(=O)c3cccnc3Oc3ccc(Cl)cc32)C1 (stereo not given) | inactive | 
Cc1ccc(SCCC(=O)Nc2cccnc2)cc1 | inconclusive [inhibitor, single point] | 
CSc1nc2nc3c(cc2c(=O)n1-c1ccc(C)cc1)COC(C)(C)C3 | inactive | 
CN(CC1COc2ccccc2O1)C(=O)c1cc(COc2c(F)cccc2F)on1 (stereo not given) | inconclusive [inhibitor, single point] | 
O=C(Nc1ccc(OC(F)(F)F)cc1)c1ccc2nccnc2c1 | inactive | 
CCOc1ccc(C(=O)Nc2nnc(SCC(=O)NCC3CCCO3)s2)cc1OCC (stereo not given) | inactive | 
COc1ccccc1CNC(=O)COC(=O)Cc1c(F)cccc1Cl | inactive | 
Cc1cccc(OCCC(=O)NNC(=O)c2ccoc2C)c1 | inactive | 
COc1ccc2cc3c(N)nn(C(=O)c4ccc(Cl)c([N+](=O)[O-])c4)c3nc2c1 | inconclusive [inhibitor, partial curve] | 
Cc1ccccc1CN1CCN(C(=O)c2cccc(F)c2)CC1 | inconclusive [inhibitor, single point] | 
COc1ccc(N2CCN(CCCNC(=O)c3cc(Nc4ccccc4OC)nc4ccccc34)CC2)cc1 | active: 23.1 µM | 

SMILES | Potency | activity change, negative = growth inhibition
CN(CC(=O)Nc1ccc(Cl)c(C(F)(F)F)c1)C(=O)c1ccc(OCC2CCCO2)cc1 (stereo not given) | active: 18.4 µM | 
COCCCN1C(=O)C(CC(=O)NC2CCCCC2)CC(C(=O)N2CCCCCC2)=C1C (stereo not given) | inactive | 
CCCC(=O)Nc1ccc2c(c1)nc(CN1CCN(C(C)=O)CC1)n2C | inactive | 
CCN(Cc1nc2cc(Cl)ccc2c(=O)[nH]1)C(=O)c1cccc(NC(=O)c2cccs2)c1 | inconclusive [inhibitor, single point] | 
COc1ccc(S(=O)(=O)N2CCCCC2c2cc(C(=O)Nc3ccccc3Cl)no2)cc1 (stereo not given) | inconclusive [inhibitor, single point] | 
COCCn1nnnc1C(c1cccs1)N1CCN(c2cc(C)ccc2C)CC1 (stereo not given) | inconclusive [inhibitor, single point] | 
Cc1ccc(CNC(=O)C(N=C2NS(=O)(=O)c3ccccc32)C(C)C)cc1 (stereo not given) | inactive | 
CC(=O)OCn1ncc(N2CCOCC2)c(Br)c1=O | inconclusive [inhibitor, single point] | 
Oc1ccc(-c2c(C3=CCCCC3)sc3ccccc23)cc1 | inconclusive [inhibitor, single point] | 
Cc1ccc2nc(-c3ccc(C#N)cc3)c(Cc3ccccc3)n2c1 | inconclusive [inhibitor, single point] | 
CN1OC[C@@H]2CN(Cc3ccc(Cl)cc3)[C@H](c3ccc(N4CCCCC4)cc3)C[C@@H]21 | inconclusive [inhibitor, single point] | 
Cc1ccc2c(Cl)cc(Cl)c(OCC(=O)NC(=O)NCc3ccco3)c2n1 | inconclusive [inhibitor, partial curve] | 
FC(F)(F)c1cc(-c2ccc(Cl)cc2)nc(NCc2cccnc2)n1 | inconclusive [inhibitor, single point] | 
O=C1C2C3c4ccccc4C(c4ccccc43)C2C(=O)N1Cc1cccnc1 (stereo not given) | inconclusive [inhibitor, single point] | 
Cc1ccc(Nc2nc(Nc3ccc(C)c(C)c3)nc(N3CCOCC3)n2)cc1C | active: 14.6 µM | 
O=C1N[C@H]2CC=C[C@H]2Nc2ccccc21 | active: 13 µM | 
CCOC(=O)c1c(C)[nH]c(C(=O)OC(C)C(=O)NC2(C#N)CCCCC2)c1C (stereo not given) | inconclusive [inhibitor, single point] | 
CCn1cc(C(=O)NCCCOC)c(=O)c2cc(S(=O)(=O)N(C)C3CCCCC3)ccc21 | inactive | 
COc1cc(/C=N/OCC(=O)Nc2cc(C)on2)ccc1OCc1ccccc1 | inconclusive [inhibitor, single point] | 
Cc1ccc(NC(=S)N/N=C/c2ccc([N+](=O)[O-])s2)cc1 | inconclusive [inhibitor, single point] | 
CC(C)=CCCC(C)CN1CCC(n2nccc2NC(=O)c2ccc3c(c2)OCO3)CC1 (stereo not given) | inconclusive [inhibitor, single point] | 
COc1cccc(OC)c1NC(=O)Cn1nc(C)c2ccccc2c1=O | inconclusive [inhibitor, single point] | 

— PubChem BioAssay AID686979 (National Center for Advancing Translational Sciences (NCATS), 2013)
